According to paper PMC6919601, “Identification of Plasmodium dipeptidyl aminopeptidase allosteric inhibitors by high throughput screening” (PLoS ONE, 2019):
“And” between values parts separate entries of the source, which are not always exact repeats. Equal values may be shown once. Out of some 110,000 compounds screened, about 230 (0.21%) showed an effect of 50% or more. The list shows a part of the results.

Biological target: DPAP1 (Plasmodium falciparum, UniProt Q8IIJ9)
Test: primary screen, percent inhibition; read by cleavage of a fluorogenic dipeptide substrate; higher = more effect of the substance
Parameters: species or system P. falciparum D10 trophozoite lysates; single well
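Further: 30 min substrate incubation versus DMSO and 10 µM JCP410 controls.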

Chain of DPAP1 (Q8IIJ9 whole entry, looked up): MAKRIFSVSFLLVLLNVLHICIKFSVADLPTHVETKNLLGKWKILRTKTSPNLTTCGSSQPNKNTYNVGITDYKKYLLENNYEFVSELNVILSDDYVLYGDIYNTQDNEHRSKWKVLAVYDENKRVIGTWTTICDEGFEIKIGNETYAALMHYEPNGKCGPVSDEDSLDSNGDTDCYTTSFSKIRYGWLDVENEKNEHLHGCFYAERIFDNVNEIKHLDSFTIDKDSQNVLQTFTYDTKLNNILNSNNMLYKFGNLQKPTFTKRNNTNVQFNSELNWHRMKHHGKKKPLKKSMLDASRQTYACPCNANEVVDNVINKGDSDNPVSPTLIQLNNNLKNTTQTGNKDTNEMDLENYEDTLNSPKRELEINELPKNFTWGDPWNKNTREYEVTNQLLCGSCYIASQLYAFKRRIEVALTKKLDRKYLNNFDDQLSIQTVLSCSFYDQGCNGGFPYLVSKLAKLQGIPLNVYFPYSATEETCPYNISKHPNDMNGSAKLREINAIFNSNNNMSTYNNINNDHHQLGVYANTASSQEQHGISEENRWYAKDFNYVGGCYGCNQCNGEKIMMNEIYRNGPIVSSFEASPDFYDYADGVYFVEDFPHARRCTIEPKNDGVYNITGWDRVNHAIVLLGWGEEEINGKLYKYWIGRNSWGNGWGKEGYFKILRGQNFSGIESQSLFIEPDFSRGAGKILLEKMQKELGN

Compound | % Inhibition @ 10 uM
CC(C)c1ccc(C2NC(C(=O)O)CS2)cc1 (stereo not shown) | -7.97%
COc1cc(Br)c(CCNC(=O)COc2ccc(C)cc2)cc1OC | -3.68%
O=C(c1ccc(F)cc1)N1CCN(C(=O)c2ccc(F)cc2)CC1 | 1.38%
O=C(CSc1nc2nccnc2c(=O)n1Cc1cccs1)NCCc1ccccc1 | 1.68%
C1=C(c2ccc3c(c2)c2c4n3CCNC4CCC2)CCC1 (stereo not shown) | 2.25%
CCCCNC(=O)CN(C)S(=O)(=O)c1ccc(OC)cc1 | 1.78%
N#CC1=C(N)Oc2[nH]nc(-c3ccccc3)c2C1c1ccc(Br)s1 (stereo not shown) | 8.6%
CN1C2CCC1CC(NC1CCCCC1)C2 (stereo not shown) | 2.6% and -6.36%
c1cc2c(cc1-c1nnc(CC34CC5CC(CC(C5)C3)C4)o1)OCO2 | -2.12%
O=C1c2ccccc2NC(c2ccc3c(c2)OCO3)N1Cc1ccccc1 (stereo not shown) | -1.74%
Cc1noc(/C=C/N2CCOCC2)c1S(=O)(=O)N1CCCC(C(=O)NC2CCCC2)C1 (stereo not shown) | -0.458%
CC(=O)c1cc(-c2ccc(F)cc2)n(CC(=O)NC2CCCC(C)C2C)c1C (stereo not shown) | 1.47%
COCc1cc(C)nc2sc(C(=O)N3CCC(C)CC3)c(N)c12 | -3.5%
CC(=O)CC(=O)Nc1cccc(C(F)(F)F)c1 | 1.7%
O=C1c2[nH]nc(-c3ccccc3O)c2C(c2cccc(O)c2)N1CCO (stereo not shown) | -1.35%
CCCCC(=O)Nc1cc(N(C)C)nc2ccccc12 | 1.9%
O=C1[C@@H]2C3C=CC(O3)[C@H]2C(=O)N1CNc1ccc(Cl)c(Cl)c1 | 1.96%
CCc1ccc2c(c1)C(O)(CC(=O)c1cccs1)C(=O)N2 (stereo not shown) | 1.17%
O=S(=O)(Nc1nc2ccc(Cl)cc2s1)c1ccccc1 | 3.01%
CCCc1cc(O)nc(SCC(=O)Nc2ccc(SC#N)cc2)n1 | 0.843%
CCOC(=O)c1[nH]c(C)c(C(=O)O)c1C | 3.42%
CCOC(=O)c1cc(-c2ccc(F)cc2)n(CC(=O)N2CCc3ccccc3C2)c1C | -1.88%
CC1=C(CCN2CCN(c3ccc([N+](=O)[O-])cc3)CC2)C(C)(C)CCC1 | 1.42%
CC(C)(C)NC(=O)c1ccccc1NC(=O)CCN1C(=O)c2ccccc2C1=O | 0.777%
CCC(=O)/N=C(\N)Nc1nc(C)c2cc(C)cc(C)c2n1 | 5.55%

Compound | % Inhibition @ 10 uM
COc1cccc(Cn2c(SCc3ccc(C(=O)NCC4CCCO4)cc3)nc3ccncc32)c1 (stereo not shown) | 1.41%
COc1ccccc1CC(C)NC(C)CCCC(C)(C)O (stereo not shown) | -0.0908%
CCOC(=O)N1CCN(Cc2cc(C)ccc2C)CC1 | -4.95%
CCOC(=O)N1CCN(C(=O)c2ccc(CS(=O)Cc3ccccc3Cl)o2)CC1 (stereo not shown) | -4.82%
N#C/C(=C/c1ccc(F)cc1)c1nc(-c2ccc([N+](=O)[O-])cc2)cs1 | 7.04%
COCCn1c(CN2CCN(CCO)CC2)nc2c1c(=O)n(C)c(=O)n2C | -7.05%
CCOc1cc(CNc2ccccc2C)ccc1OC | -4.68%
CC(=O)c1cccc(NC(=O)/C=C/c2ccc3c(c2)OCO3)c1 | 3%
COc1ccc(C(=O)Nc2sc3c(c2C(N)=O)CCCC3)cc1 | 3.7%
NS(=O)(=O)c1ccc(CNC(=O)c2cc(=O)c3cc(Cl)ccc3o2)cc1 | -1.47%
Cc1nn(C(=O)/C=C/c2ccccc2)c2c1C1C(C2)C1(C)C (stereo not shown) | 4.41%
Cc1cc2nc(SCC(=O)C(C)(C)C)[nH]c2cc1C | 2.94%
CC(C)n1cc(/C=C2/SC(=O)N(CC(=O)N3CCCC3)C2=O)c2ccccc21 | -4.5%
C/N=c1\c(NS(=O)(=O)c2cccc(C#N)c2)c(O)oc2ccccc12 | -1.21%
Cc1cccc(-n2c(O)cc(=O)nc2SCc2ccccc2)c1 | -1.38%
CN1C(=O)N(C)C(=O)C(CCc2ccncc2)(CCc2ccncc2)C1=O | 18.1%
Cc1cc(OCC(=O)Nc2ccc(S(=O)(=O)Nc3onc(C)c3C)cc2)cc(C)c1Cl | 3.68%
CC1C(C)C(O)(c2ccccc2)CCN1C (stereo not shown) | 6.33%
Cc1nc2ncnn2c(O)c1CCC(=O)NCc1ccc2c(c1)OCO2 | -3.33%
COC(=O)c1ccccc1NC(=O)Cc1cccs1 | -7.5%
CC(=O)Nc1cccc2c1sc1nc3n(c(=O)c12)CCCCC3 | -7.87%
CCC(Cc1ccccc1)NCc1c(C(=O)O)c(C)n(Cc2ccccc2)c1C (stereo not shown) | 1.41%
COc1cc2c3c(c1OC)C1(C=CC(=O)C=C1)CC3N(S(=O)(=O)c1ccc(C)cc1)CC2 (stereo not shown) | 2.1%
CCC(NC(=O)c1ccccc1)c1ccc(OC)c(OC)c1 (stereo not shown) | -3.45%
COc1ccc(N2C(=O)CC(N(CCc3ccc(OC)c(OC)c3)C(C)=O)C2=O)cc1 (stereo not shown) | -3.09%

Compound | % Inhibition @ 10 uM
N#C/C(=C\c1c(Oc2ccccc2)nc2ccccn2c1=O)C(=O)NCCc1ccccc1 | 1.06%
COc1ccc(CC(=O)Nc2cccc(C#N)c2)cc1 | 1.59%
COc1cccc(S(=O)(=O)NCc2ccc(C(=O)Nc3cccnc3)cc2)c1 | -7.25%
CC1(C)C2CCC1(C)C(/N=C/C1=C(O)c3ccccc3C1=O)C2 (stereo not shown) | -5.08%
Cc1ccc2c(c1)c1c3n2CCN(CC(O)CN2CCN(C(=O)c4ccco4)CC2)C3CCC1 (stereo not shown) | 1.96%
COc1ccc(/C=C2/SC(=O)N(CC(=O)N3CCN(c4ccccc4)CC3)C2=O)c(C)c1 | 1.8%
CCOc1ccc(N(C(C)=O)C2SC(=O)N(c3ccccc3)C2=O)cc1 (stereo not shown) | 9.94%
Cc1ccc2c(cnn2C(=O)CCC(=O)NCc2ccccc2C)c1 | -2.88%
COCc1cc(C)nc2sc3c(c12)NC(c1ccccc1Cl)NC3=O (stereo not shown) | 1.57%
CCOC(=O)C1=C(C)NC(=O)NC1c1ccc(O)cc1 (stereo not shown) | -0.128%
COC(=O)c1ccc(OCC2c3cc(OC)c(OC)cc3CCN2C(=O)C2CC2)cc1 (stereo not shown) | -1.79%
CC(C)c1ccc(C2C(C(=O)c3ccccc3)=C(O)C(=O)N2c2nccs2)cc1 (stereo not shown) | 3.58%
CCOc1ccc(-c2cc(NC(=O)c3ccc(Br)o3)c(C(=O)O)s2)cc1 | 2.84%
COC(=O)CSc1nc2ccccc2s1 | 3.48%
Cc1ccc(-c2csc(Nc3ccc(Cl)cc3)n2)cc1 | 0.912%
CC1CCN(S(=O)(=O)c2ccc(S(=O)(=O)N3CCN(c4ncccn4)CC3)cc2)CC1 | -1.15%
Cc1ccc(-n2c(O)cc(=O)nc2SCc2ccccc2)cc1 | 3.62% and -2.36%
COc1cc(OC)cc(C(=O)NCCn2ccc3ccccc32)c1 | -0.396%
O=C(Nc1ccn(-c2ccccc2)n1)c1ccc(Cl)cc1 | 1.64%
CC(NC(=O)C(NS(=O)(=O)c1cccc2nsnc12)c1ccccc1)c1ccccc1 (stereo not shown) | 2%
Cc1sc2cc(Cl)ccc2[n+]1CCCS(=O)(=O)O | -3.5%
CCCCc1c(O)n2ccccc2nc1=O | 0.716%
O=C(NCCSc1ccccn1)c1cccc(Cl)c1 | -1.81%
COC(=O)c1c(C)nn(-c2ccc(F)cc2)c1N | -1.75%
N#C/C(=C\c1ccc(Cl)cc1)c1nc(C2CC2)cs1 | 0.98%

Compound | % Inhibition @ 10 uM
O=C(Nc1cc(Cl)c(Cl)cc1Cl)c1ccc([N+](=O)[O-])cc1 | -1.22%
O=C(Cc1ccccc1)Nc1c(C(=O)N2CCCCCC2)cnn1-c1ccccc1 | -2.13%
COc1cc(NC(=O)c2ccc(NC(=O)C(C)C)cc2)c(OC)cc1Cl | 1.8%
O=S(=O)(NCC1CCN(Cc2ccco2)CC1)c1ccc(-c2cc(C(F)(F)F)no2)s1 | 3.08%
O=C1NC(=S)N/C1=C/c1ccc(Br)cc1 | -2.55%
O=C(c1nn2c(c1Br)NC(c1cccs1)CC2C(F)(F)F)N1CCCCC1 (stereo not shown) | 1.03%
Cn1c(CN2CCOCC2)nnc1SCc1ccc(Cl)cc1 | 4.94%
CCCCC1C(=O)NC(=S)N(c2ccccc2)C1=O (stereo not shown) | 3.76%
CC(C)C[C@H](NC(=O)c1ccc(Oc2cccc(N(C)C)c2)cc1)C(=O)NCC#N | -5.64%
CC(=O)Nc1ccc(/N=C/c2c(C)nn(-c3ccccc3)c2O)cc1 | -8.28%
Clc1ccc(C2=NN(c3ccccc3)C(c3ccc(Cl)cc3)C2)cc1 (stereo not shown) | 5.37%
CCOc1ccc(NC2=CC(=O)CC(c3ccccc3)C2)cc1 (stereo not shown) | 0.673%
COc1ccc(F)cc1S(=O)(=O)n1cc(C)nc1-c1ccccc1 | 1.76%
CCc1ccc(CNC(=O)C2CCCN(c3ncnc4onc(C)c34)C2)cc1 (stereo not shown) | -4.7%
Cc1ccc(S(=O)(=O)c2nnn(-c3cccc(F)c3)c2N)cc1 | -7.8%
Cc1ccc(C)c(S(=O)(=O)NCc2ccc(C(=O)Nc3ccc4c(c3)OCCO4)cc2)c1 | 2.4%
Cc1ccc(C)c(Cn2c(C(=O)O)c(CNCCCc3ccccc3)c3ccccc32)c1 | -3.21%
O=CN1CCN(Cc2ccc(-c3ccc(Cl)cc3)o2)CC1 | -3.5%
CCN1C(=O)/C(=C\c2ccc(Cl)cc2)N=C1SCC(=O)NCc1ccccc1 | 2.68%
O=C(Nc1ccc(F)c(Cl)c1)Nc1ccc(Cl)c(Cl)c1 | -0.414%
CSc1sc(C(C)=O)c(N)c1-c1ccc(Cl)cc1 | 1.02%
COc1cccc(/C=C/c2cc(C(F)(F)F)nc(O)n2)c1OC | -4.97%
COc1ccccc1C1C(C#N)=C(N)Oc2[nH]nc(-c3cccs3)c21 (stereo not shown) | 2.38%
O=C(c1cnn2c(C(F)(F)F)cc(-c3ccc(Br)cc3)nc12)N1CCOCC1 | 7.09%
Cc1cccc(C)c1OCC(O)CN1C(C)CCCC1C (stereo not shown) | 8.01%
